In one test the test system is Jurkat cells. As to the kind of experiment: Anti-proliferation activity on Jurkat cells ([…] GLO). It counts as cell-based. As to conditions: Homo sapiens, 72 hours, read-out: IC50 (nM) Jurkat Cell. Here is the method:
(§1) Select compounds described herein were evaluated for structure-activity analyses. Exemplary results of the IC50 values of exemplary compound BSJ-01-175-1 on other CDK kinases from an Invitrogen biochemical assay are shown in Table 1. In vitro kinase assays were performed by Life Technologies in duplicate at an ATP concentration=Km for each kinase. The IC50 on Jurkat cell is from an anti-proliferaction assay; IC50 on CDK2, CDK7 and CDK9 is from a biochemical kinase inhibition assay from Life technology.
Assay of Anti-Proliferation Activity on Jurkat Cells
Jurkat cells were plated at 30,000 cells/well and treated with a titration of compounds indicated. Cells were allowed to grow for 72 hours. Cells were assayed using […] GLO (Promega) to determine cell viability by measuring the amount of ATP present, which is an indicator of cell metabolic activity. Results are graphedcalculated as relative as luminescence as compared to DMSOP=.cent values. Curves were generated using PRISM and an IC50 value was determined.

The next test has as its target T1, CDK2/cyclin A (Homo sapiens, UniProt P24941).
T1 construct: purchased Life Technologies (Invitrogen)
As to the kind of experiment: Invitrogen/Life Technologies biochemical kinase inhibition assay. Particulars: ATP concentration = Km, duplicate; read-out: IC50 (nM) CDK2/Cyclin A. Here is the method: as §1

A further test addresses T2, CDK7/cyclin H/MNAT1 (Homo sapiens, UniProt P50613).
T2 construct: purchased Life Technologies (Invitrogen)
T2 sequence (P50613 whole entry): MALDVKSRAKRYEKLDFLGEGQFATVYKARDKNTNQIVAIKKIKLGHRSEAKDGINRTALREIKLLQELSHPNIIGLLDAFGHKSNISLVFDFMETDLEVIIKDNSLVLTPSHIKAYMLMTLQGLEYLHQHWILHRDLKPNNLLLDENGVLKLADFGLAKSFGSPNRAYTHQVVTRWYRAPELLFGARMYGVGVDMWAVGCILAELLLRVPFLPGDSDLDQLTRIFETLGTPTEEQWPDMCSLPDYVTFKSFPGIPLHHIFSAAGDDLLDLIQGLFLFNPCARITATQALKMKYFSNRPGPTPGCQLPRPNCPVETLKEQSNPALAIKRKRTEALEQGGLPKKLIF
T2 sequence (P51946 whole entry partner): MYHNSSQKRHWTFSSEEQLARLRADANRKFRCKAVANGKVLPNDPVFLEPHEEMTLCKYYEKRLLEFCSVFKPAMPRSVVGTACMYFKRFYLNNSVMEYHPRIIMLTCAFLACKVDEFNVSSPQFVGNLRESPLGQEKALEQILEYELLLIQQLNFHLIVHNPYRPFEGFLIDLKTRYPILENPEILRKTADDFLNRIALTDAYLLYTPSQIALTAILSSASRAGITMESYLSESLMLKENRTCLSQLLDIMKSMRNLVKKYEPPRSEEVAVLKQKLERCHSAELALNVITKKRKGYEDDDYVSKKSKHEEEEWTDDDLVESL
T2 sequence (P51948 whole entry partner): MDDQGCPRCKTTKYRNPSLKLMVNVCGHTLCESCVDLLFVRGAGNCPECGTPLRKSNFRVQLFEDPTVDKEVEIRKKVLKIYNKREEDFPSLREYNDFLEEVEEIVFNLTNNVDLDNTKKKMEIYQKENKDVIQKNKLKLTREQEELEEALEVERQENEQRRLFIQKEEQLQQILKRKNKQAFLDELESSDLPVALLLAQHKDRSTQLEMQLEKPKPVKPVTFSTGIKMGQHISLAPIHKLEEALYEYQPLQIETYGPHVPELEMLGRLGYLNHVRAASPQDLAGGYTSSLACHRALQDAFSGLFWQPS
Described as above. Particulars: ATP concentration = Km, duplicate; read-out: IC50 (nM) CDK7/cyclin H/MNAT1. On the procedure: as §1

The target of another test is T3, CDK9/cyclin T1 (Homo sapiens, UniProt P50750).
T3 construct: purchased Life Technologies (Invitrogen)
T3 sequence (P50750 whole entry): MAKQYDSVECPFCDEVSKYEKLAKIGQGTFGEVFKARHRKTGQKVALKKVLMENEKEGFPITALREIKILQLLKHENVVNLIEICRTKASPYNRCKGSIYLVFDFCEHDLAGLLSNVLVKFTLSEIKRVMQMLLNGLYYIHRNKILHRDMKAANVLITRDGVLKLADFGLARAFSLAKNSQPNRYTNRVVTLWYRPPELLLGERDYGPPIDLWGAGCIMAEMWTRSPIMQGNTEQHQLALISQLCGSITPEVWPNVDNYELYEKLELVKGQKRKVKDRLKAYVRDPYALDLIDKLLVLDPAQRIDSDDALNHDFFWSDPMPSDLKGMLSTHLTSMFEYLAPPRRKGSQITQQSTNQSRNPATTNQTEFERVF
T3 sequence (O60563 whole entry partner): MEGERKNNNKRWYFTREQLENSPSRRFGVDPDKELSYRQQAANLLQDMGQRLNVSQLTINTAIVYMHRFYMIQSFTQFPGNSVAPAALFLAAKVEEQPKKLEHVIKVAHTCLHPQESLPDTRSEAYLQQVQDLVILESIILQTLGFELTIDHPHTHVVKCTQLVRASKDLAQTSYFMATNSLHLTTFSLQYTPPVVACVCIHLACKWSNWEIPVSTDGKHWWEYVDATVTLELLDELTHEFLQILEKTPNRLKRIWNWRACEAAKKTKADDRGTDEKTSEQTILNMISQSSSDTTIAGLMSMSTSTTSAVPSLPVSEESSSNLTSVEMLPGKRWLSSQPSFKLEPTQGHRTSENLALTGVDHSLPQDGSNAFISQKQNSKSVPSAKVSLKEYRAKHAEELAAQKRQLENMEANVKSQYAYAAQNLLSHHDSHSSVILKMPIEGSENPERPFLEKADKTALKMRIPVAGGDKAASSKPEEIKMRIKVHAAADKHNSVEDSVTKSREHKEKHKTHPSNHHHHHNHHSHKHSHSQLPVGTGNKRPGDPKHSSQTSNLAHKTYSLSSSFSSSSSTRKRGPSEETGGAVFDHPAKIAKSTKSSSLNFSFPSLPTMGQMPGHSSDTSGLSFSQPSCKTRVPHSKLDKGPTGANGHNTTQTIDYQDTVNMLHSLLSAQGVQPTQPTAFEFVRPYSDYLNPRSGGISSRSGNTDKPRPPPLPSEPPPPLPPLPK
The description is as above. As to conditions: ATP concentration = Km, duplicate; read-out: IC50 (nM) CDK9/Cyclin T1. On the procedure:
as §1

With `C=CC(=O)Nc1ccc(N2CCC[C@@H](Nc3ncc(Cl)c(-c4c[nH]c5ccccc45)n3)C2)nc1` [BSJ-02-109, (R)—N-(6-(3-((5-chloro-4-(1H-indol-3-yl)pyrimidin-2-yl)amino)piperidin-1-yl)pyridin-3-yl)acrylamide], the IC50 is 11.2 nM in the test with Jurkat cells, 1940 nM at CDK2/cyclin A, 433 nM at CDK7/cyclin H/MNAT1 and 121 nM at CDK9/cyclin T1.

As to `CN(C)C/C=C/C(=O)Nc1ccc(N2CCC[C@@H](Nc3ncc(Cl)c(-c4c[nH]c5ccccc45)n3)C2)nc1` [BSJ-02-108, (R,E)-N-(6-(3-((5-chloro-4-(1H-indol-3-yl)pyrimidin-2-yl)amino)piperidin-1-yl)pyridin-3-yl)-4-(dimethylamino)but-2-enamide], the IC50 at CDK2/cyclin A worked out at 492 nM; at CDK7/cyclin H/MNAT1 it was 74 nM; on CDK9/cyclin T1, 87.7 nM.

On to `CN(C)C/C=C/C(=O)Nc1ccc(C(=O)N2CCC[C@@H](Nc3ncc(Cl)c(-c4c[nH]c5ccccc45)n3)C2)nc1` [BSJ-01-202, (E)-N-(6-(3-(5-chloro-4-(1H-indol-3-yl)pyrimidin-2-ylamino)piperidine-1-carbonyl)pyridin-3-yl)-4-(dimethylamino)but-2-enamide], for which the IC50 in the test on Jurkat cells amounted to 54.3 nM; on CDK2/cyclin A it was 3870 nM; on CDK9/cyclin T1, 658 nM.

With `C=CC(=O)Nc1ccc(C(=O)N2CCCC(Nc3ncc(Br)c(-c4c[nH]c5ccccc45)n3)C2)nc1` (stereo not shown) [BSJ-02-057, N-(6-(3-(5-bromo-4-(1H-indol-3-yl)pyrimidin-2-ylamino)piperidine-1-carbonyl)pyridin-3-yl)acrylamide], the values for the IC50 on CDK2/cyclin A, on CDK7/cyclin H/MNAT1 and on CDK9/cyclin T1 were 2040 nM, 272 nM and 505 nM, respectively.

For the compound `CN(C)C/C=C/C(=O)Nc1ccc(C(=O)N2CCC[C@@H](Nc3ncc(Br)c(-c4c[nH]c5ccccc45)n3)C2)nc1` [BSJ-02-058, (E)-N-(6-(3-(5-bromo-4-(1H-indol-3-yl)pyrimidin-2-ylamino)piperidine-1-carbonyl)pyridin-3-yl)-4-(dimethylamino)but-2-enamide], the IC50 at CDK2/cyclin A stood at 3740 nM; on CDK7/cyclin H/MNAT1 it was 251 nM; on CDK9/cyclin T1, 734 nM.

These data come from US11932625B2, “Inhibitors of cyclin-dependent kinase 12 (CDK12) and uses thereof” (Dana-Farber Cancer Institute, Inc., priority 2016, dated 2024).
